# PubChem BioAssay AID485344 (National Center for Advancing Translational Sciences (NCATS), 2010)
# The whole screen tested about 340,000 compounds, of which about 6,900 (2%) were called active. No stated cut-off is given here; in the data, active means inhibition above about 30%; inactive means below that, where a call was filed. The entries are a selection whose mix differs from that of the whole data set. The source gives no active or inactive call for entries shown without one.
# Target: D(2) dopamine receptor (Homo sapiens) (UniProt P14416)
# Experiment: HTS Assay for Allosteric Antagonists of the Human D2 Dopamine Receptor: Primary Screen for Antagonists; further: 0% is about no effect
# Details: HEK293 TREx D2 cells, calcium flux, dopamine EC80; at 10 µM; stronger effect = higher value
# Outline: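 Measurement of antagonist activity uses fluorescent calcium dye in inducible HEK293 T-REx D2 cells: 10 s baseline, compound addition with 180 s read, EC80 dopamine addition with a further 180 s read.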
# UniProt P14416, sequence (P14416 whole entry, looked up): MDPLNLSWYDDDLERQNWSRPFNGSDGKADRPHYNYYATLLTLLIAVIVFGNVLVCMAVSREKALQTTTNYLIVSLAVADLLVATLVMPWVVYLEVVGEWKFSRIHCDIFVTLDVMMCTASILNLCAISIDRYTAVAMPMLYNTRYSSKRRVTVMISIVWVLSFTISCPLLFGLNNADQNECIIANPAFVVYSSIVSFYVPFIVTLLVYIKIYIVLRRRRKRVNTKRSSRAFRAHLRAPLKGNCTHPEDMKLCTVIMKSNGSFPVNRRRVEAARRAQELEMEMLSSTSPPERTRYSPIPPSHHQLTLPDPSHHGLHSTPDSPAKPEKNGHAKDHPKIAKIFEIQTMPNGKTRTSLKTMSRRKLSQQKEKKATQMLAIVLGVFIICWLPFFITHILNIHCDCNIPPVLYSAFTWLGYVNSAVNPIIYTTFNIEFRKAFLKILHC
row,Structure (SMILES),inhibition
1,CCOC(=O)c1ccc(NC(=O)CSc2nnc(CNC(=O)c3ccc(OC)cc3)n2CC)cc1,-9.88%
2,COc1ccc(NC(=O)CC2C(=O)N(c3ccc(C)cc3)C(=O)N2Cc2ccc3c(c2)OCO3)cc1 (stereo unspecified),-14.1%
3,O=S(=O)(c1ccc2nc(Nc3ccc(F)cc3)ccc2c1)N1CCCC1,3.35%
4,Cc1cc(N2CCC(C)CC2)nc2ccc(NC(=O)CCC(=O)N3CCN(c4ccccc4F)CC3)cc12,0.007%
5,Cc1ccc(C)c(CNC(=O)CN2C(=O)CSc3ccc(S(=O)(=O)N(C)C)cc32)c1,-5.1%
6,Cc1c(Br)c([N+](=O)[O-])nn1CC(=O)NC1CCCCCC1,active: 41.5%
7,Cc1cccc(-n2nnc(-c3nc(-c4cccs4)no3)c2N)c1,-17.9%
8,COc1ccc(S(=O)(=O)N(CCc2ccccc2)CC(=O)Nc2cc(C)cc(C)c2)cc1OC,3.88%
9,COc1ccccc1N1CCN(S(=O)(=O)CCNC(=O)C(c2ccccc2)c2ccccc2)CC1,2.45%
10,CC(=O)c1cccc(N2C(=O)CN(S(C)(=O)=O)CC2(C)C(=O)NC2CCCC2)c1 (stereo unspecified),7.8%
11,CCc1ccc(NC(=O)Cn2c(=O)n(CCc3ccccc3)c(=O)c3sc4ccccc4c32)cc1,-11.4%
12,Cc1nc(-c2ccc(C)c(S(=O)(=O)N3CCC(C(=O)NCc4ccc(F)cc4)CC3)c2)no1,25.2%
13,O=C(C[n+]1cccc(CNC(=O)c2ccc(OC(F)F)cc2)c1)Nc1cccc(C(F)(F)F)c1,active: 44.8%
14,COc1cccc(OC)c1OCCN1CCN(C(=O)c2ccco2)CC1,active: 63.6%
15,CCC(C)NC(=O)c1cn(CC)c2ccc(S(=O)(=O)N3CCc4ccccc4C3)cc2c1=O (stereo unspecified),11.8%
16,Cc1ccc(CCNC(=O)c2ccc3c(c2)N(Cc2ccc(F)cc2)CCS3)cc1,-12.2%
17,CC(C)c1ccc(NC(=O)[C@H](NC(=O)[C@@H]2Cc3ccccc3CN2)c2ccccc2)cc1,active: 32.7%
18,Cc1cc(C)c(NC(=O)Cn2c(=O)n(CC(=O)NCCc3ccccc3)c(=O)c3ccccc32)c(C)c1,10.4%
19,O=C(CSc1nc2ccccc2n1Cc1cccc(F)c1)N1CCN(c2ccc(F)cc2)CC1,9.3%
20,O=C(NCc1ccccc1Cl)c1ccc2c(c1)N(Cc1ccccc1)CCS2,-0.582%
21,CCOC(=O)c1[nH]c(C)c(CCC(=O)Nc2cc(Cl)c(OC)cc2OC)c1C,-10.8%
22,O=c1c2sccc2n(Cc2cc(=O)n3cc(Cl)ccc3n2)c(=O)n1-c1ccccc1,-4.98%
23,O=C1CCSc2ccc(S(=O)(=O)Nc3cccc(C(F)(F)F)c3)cc2N1,-5.54%
24,O=c1c(N2CCN(c3cccc(Cl)c3)CC2)csc2ccc(Cl)cc12,3.82%

row,Structure (SMILES),inhibition
1,Nc1nc(CN2CCN(c3ccccc3F)CC2)nc(Nc2ccc3c(c2)OCCO3)n1,active: 54%
2,COc1ccc(-c2cn3nc(SCC(=O)Nc4cc(C)cc(C)c4)ccc3n2)cc1,-13.7%
3,Cc1ccc(S(=O)(=O)N2CCOCC2)cc1NC(=O)CNCC1CCCCC1,active: 49.8%
4,CCc1cccc(C)c1NC(=O)Cn1ncc2c3ccccc3n(Cc3ccccc3)c2c1=O,18%
5,Cc1ccc(Cl)cc1Nc1nn2c(=O)c3ccc(C(=O)NC4CCCCC4)cc3nc2s1,5.85%
6,CCOc1ccc2c(c1)c(=O)c(S(=O)(=O)c1ccc(CC)cc1)cn2Cc1cccc(Cl)c1,-11.9%
7,COc1ccc(OC)c(NC(=O)CS(=O)(=O)Cc2nc(-c3ccc(C)cc3)oc2C)c1,2.54%
8,CCCSc1ncnc2c1c(-c1ccccc1)cn2-c1ccccc1OC,-0.841%
9,COc1ccc(CNC(=O)c2ccc(CS(=O)(=O)c3ccc(Br)cc3)o2)cc1,22.7%
10,CCCCOC(=O)c1ccc(Nc2nc3ccc(C(=O)c4ccccc4)cc3n3cnnc23)cc1,10.5%
11,CCOc1ccc(OCC)c(NC(=O)c2cc(-c3cccs3)nc3ccccc23)c1,-14.4%
12,O=C(c1cc2cc3ccc(Cl)cc3nc2o1)N1CCN(c2cccc(Cl)c2)CC1,11.3%
13,O=c1c2nncn2ccn1-c1ccc(F)c(F)c1,11.2%
14,CCC(C)(C)n1nnnc1C(c1ccccn1)N1CCCCC1 (stereo unspecified),active: 51.8%
15,O=C(CN1C(=O)CSc2ccc(S(=O)(=O)N3CCCC3)cc21)NCc1ccc(F)cc1Cl,-19.6%
16,Cc1cccc(NC(=O)N2CC=C(c3c[nH]c4ccccc34)CC2)c1C,-28.3%
17,CCN(CC)C(=O)C1CCCN(c2ncnc3c2c(-c2ccccc2)cn3-c2cccc(C)c2)C1 (stereo unspecified),-8.83%
18,COCCCNC(=O)C1CCN(c2nc3ccc(Cl)cc3[nH]2)CC1,-13.7%
19,CC1=C(c2ccc(C(C)C)cc2)S(=O)(=O)NC1=NCc1ccc(Cl)cc1,-21.9%
20,Cc1ccc(CNC(=O)CCCc2nnc3n(CC(C)C)c(=O)c4sccc4n23)cc1,13.8%
21,CC1CCN(CCOc2cc(Cl)ccc2Cl)CC1,active: 72.2%
22,Cc1sc2ncn(CC(=O)N3CCN(c4ccccc4)CC3)c(=O)c2c1S(=O)(=O)N1CCC(C)CC1,-13%
23,CCCN(CCC)C(=O)Cn1c(=O)n(-c2ccc(Cl)c(Cl)c2)c(=O)c2c(C)c(C(=O)N(C)C)sc21,-3.72%
24,CCOc1ccc(OCC)c(NC(=O)C2CCCN(S(=O)(=O)c3ccc(C)cc3)C2)c1 (stereo unspecified),0.658%

row,Structure (SMILES),inhibition
1,CCOc1ccc(-c2nnc(SCC(=O)N(CC)c3cccc(C)c3)o2)cc1,23.4%
2,O=C(Cn1c(=O)n(-c2ccccc2Cl)c(=O)c2sc3ccccc3c21)NC1CCCC1,-13.3%
3,COc1ccccc1CNC(=O)CSc1cc(C)[nH]c(=O)n1,-2.26%
4,Cc1ccn2c(Nc3ccc4c(c3)OCCO4)c(-c3ccc(N(C)C)cc3)nc2c1,-3.04%
5,Cc1ccc(C(=O)Nc2oc(-c3ccccc3)cc2C#N)cc1,active: 30.5%
6,O=C(NCc1ccccc1Cl)c1ccc(-n2cnc3cccnc32)cc1,-1.49%
7,Cn1c(/C(C#N)=C/c2ccc(C(F)(F)F)cc2)nc2ccccc21,-6.07%
8,CCOc1ccccc1NC(=O)Cn1nc(N2CCN(c3ccccc3)CC2)ccc1=O,1.23%
9,Cc1ccc(CNC(=O)CSCc2nc(-c3cccc(C)c3)oc2C)cc1,-15.5%
10,Cc1cn2c(=O)c(S(=O)(=O)NCc3ccc(F)cc3)c(C)nc2s1,-9.19%
11,O=C(CCC1N=C2c3ccccc3N=C(SCC(=O)NCCc3ccccc3)N2C1=O)NCc1ccc(F)cc1 (stereo unspecified),18.1%
12,CCC(NC(=O)Nc1cccc(C)c1)c1c(-n2cccc2)sc2c1CCN(C)C2 (stereo unspecified),5.83%
13,Cc1ccc(OCC(=O)Nc2cccc3ccc(C)nc23)c(C)c1,21.5%
14,Cc1cccc(NC(=O)COc2ccc3oc4c(c3c2)CCCC4)c1,-3.55%
15,O=C(CCc1nc(-c2cccs2)no1)Nc1ccc([N+](=O)[O-])cc1,-9.49%
16,O=C(NCCS(=O)(=O)N1CCN(c2ccccc2F)CC1)C1CC(=O)N(c2ccc(F)cc2)C1 (stereo unspecified),4.69%
17,Cc1ccc(-n2cnc3cc(C(=O)NCCC4=CCCCC4)ccc32)cc1Cl,-15.9%
18,CCc1ccccc1N(CC)C(=O)Cn1nc(Cc2ccncc2)c2ccccc2c1=O,4.68%
19,Cc1cccc(Cn2c(=O)n(Cc3ccccc3)c(=O)c3sc4ccccc4c32)c1,-0.751%
20,Cc1cccc(NC(=O)Nc2nnc(N3CCCC3)s2)c1,-9.12%
21,O=C(Cc1ccc(Cl)cc1)Nc1ccc(-c2cc3ccccc3oc2=O)c(Cl)c1,active: 46.5%
22,Cc1cc(C(=O)NCc2ccccc2)c2c(C)nn(-c3cccc(Cl)c3C)c2n1,10.9%
23,CNC(=O)c1nn(-c2ccc(Cl)cc2)ccc1=O,active: 33.4%
24,Cc1ccc(NC(=O)C2CCCN2S(=O)(=O)c2ccc3nc(-c4ccccc4)[nH]c3c2)cc1C (stereo unspecified),-5.71%

row,Structure (SMILES),inhibition
1,COc1ccc(C(CNC(=O)c2ccc3c(c2)OCCO3)N(C)C)cc1 (stereo unspecified),active: 44.5%
2,Cc1ccccc1C(=O)Nc1ccccc1-c1nc(-c2ccccc2)no1,25.9%
3,CCc1nc2nc(C)c(NS(=O)(=O)c3ccc(F)c(C)c3)c(=O)n2[nH]1,1.09%
4,CCOc1ccc2nc(N3CCCC(C(=O)NCCc4ccc(C)cc4)C3)sc2c1 (stereo unspecified),6.34%
5,CC(C(=O)Nc1ccccc1)n1nnc2sc3c(c2c1=O)CCCC3 (stereo unspecified),4.56%
6,Cc1ccc(NC(=O)CSc2nc3ccccc3n2CC(=O)N(C)C2CCCCC2)cc1C,24.8%
7,Cc1c2cnn(-c3ccccc3)c(=O)c2c(C)n1C(C)C(=O)NCc1cccc(Br)c1 (stereo unspecified),-4.77%
8,COc1cccc(NC(=O)Cn2c(=O)n(CCc3cccc(C)c3)c(=O)c3ccccc32)c1,5.87%
9,CCOCCCn1c(=N)c(C(=O)NCc2ccccc2)cc2c(=O)n3ccccc3nc21,-17.6%
10,Cc1cccc(NC(=O)c2c(NC(=O)c3ccco3)sc3c2CCC(C)C3)c1 (stereo unspecified),-28.3%
11,COc1ccc(-n2nc(-c3ccc(C)cc3)c3cnc4cc(F)c(F)cc4c32)cc1,-0.44%
12,COc1cccc(CNC(=O)c2ccc3c(c2)nc2n3CCC(C)C2)c1 (stereo unspecified),-7.46%
13,CCCCNCCOCCOc1ccccc1-c1ccccc1,active: 76.4%
14,CCCN(CCC)C(=O)c1nn(C)c2c1CSc1ccccc1-2,20.6%
15,CC(C)C(=O)Nc1cccc(C(=O)Nc2nnc(C(F)(F)F)s2)c1,-5.07%
16,CCOc1ccccc1NC(=O)CCc1c(C)nc2cc(-c3ccccc3)nn2c1C,-4.12%
17,Cc1ccc(NC(=O)CN(c2ccc(C)cc2)S(=O)(=O)c2cccc3nonc23)cc1,-1.14%
18,Cc1ccc2nc(CN3CCN(S(=O)(=O)c4ccc(C)c(C)c4)CC3)oc2c1,9.3%
19,CC(=O)c1c(C)n(-c2ccc(C)cc2)c2ccc(OC(=O)COc3ccccc3)cc12,0.182%
20,Cc1ccc(C2CC(=O)n3nc(-c4cccc(C)c4)nc3S2)cc1 (stereo unspecified),-8.73%
21,CN(C)c1ccc(CNC(=O)C2CCN(S(=O)(=O)c3ccc4[nH]c(=O)ccc4c3)CC2)cc1,11.7%
22,CC(C)C(=O)Nc1nnc(SCc2cc(=O)n3ccccc3n2)s1,-2.7%
23,COc1cc(-c2ccno2)ccc1S(=O)(=O)N1CCN(c2ccccc2)CC1,-28%
24,CC1=C(C(=O)Nc2cccnc2)C(c2ccccc2Cl)n2nc(-c3ccccc3)nc2N1 (stereo unspecified),3.56%
